Experimental data: ChEMBL document CHEMBL4888484, “Replenishing the malaria drug discovery pipeline: Screening and hit evaluation of the MMV Hit Generation Library 1 (HGL1) against asexual blood stage Plasmodium falciparum ,using a nano luciferase reporter read-out” (2022)
In all, about 150,000 compounds went through this assay and about 540 (0.36%) showed an effect of 50% or more. The list shows a part of the results.

The compounds below were run on Plasmodium falciparum (assay: Primary screen in NF54 nanoGlo assay, in single point, at 2uM, 72h; a lower Z score goes with more inhibition). Conditions: timepoint 72 hour.
Format: functional, Erythrocyte

Compound | % Inhibition [%] | Z score
COc1cncnc1NC(=O)NC[C@H]1[C@H](c2ccccc2)C1(F)F | -5 | 0.93
CCN(C)S(=O)(=O)N[C@@H]1CCOC[C@@H]1Nc1ccnc(C)n1 | 8 | -0.98
CCCc1nc(N2Cc3cnc(CC(C)C)nc3C2)no1 | -5 | 0.92
CCN(C(C)=O)c1nc(CNc2ccccc2[C@H](C)O)cs1 | -25 | 2.23
O=C(O)c1ccc(Cl)c(NC(=O)c2cc3c(s2)CCCC3)c1 | 3 | -0.59
CC(C)CC[C@H](N)C(=O)Nc1cccc(N)c1 | -2 | 0.44
COCCN(CC1CC1)C(=O)c1cncnc1C | -10 | 0.96
C[C@H]1CCN(C(=O)Nc2cccc3c2OCC(=O)N3)C[C@@H](C)C1 | 10 | -1.32
Cc1ccc(-c2nnn(C)n2)cc1NC(=O)NC1CCOCC1 | 1 | -0.24
CC[C@H](C)NC(=O)c1ccc(CN2C(=O)CCn3nc(-c4ccccc4)cc32)cc1 | 22 | -2.51
CCOc1ncc(NC(=O)c2cccc3ccccc23)c(OCC)n1 | -10 | 1.92
CC[C@@](NC(=O)Cc1cccs1)(C(N)=O)C(C)C | -10 | 0.98
CC1(C)COCCN1C(=O)COC(F)F | -10 | 1.87
O=C(NC1CCN(c2nnc3ccccn23)CC1)c1ccccn1 | 32 | -3.66
CCc1cnc(CNC(=O)[C@@H](OC)C2CC2)s1 | 1 | -0.14
CC(=O)N1CCN(Cc2cccc(-c3cnc4c(c3)CCCO4)c2)CC1 | -17 | 2.18
CC1(C)NC(=O)CC[C@@H]1NC1CC(c2cccc(F)c2)C1 (some centres not stated) | 31 | -4.44
O=C(N[C@@H](C(=O)O)c1ccc(Cl)c(F)c1)c1ccnn1C1CCCC1 | 9 | -1.46
CC(C)(C)C(=O)NCCNC(=O)c1ccco1 | -45 | 5.24
Cc1ncsc1CN1CCc2nn(CC3CC3)c(=O)n2CC1 | -10 | 1.12
Cc1cc(C)n(-c2ccc3nnc(CCCC(=O)Nc4ccncc4)n3n2)n1 | -6 | 0.91
CC(C)c1ccc(C(=O)N2C[C@H]3CC[C@@H](C2)N(Cc2ccccc2)C3)c(=O)[nH]1 | -10 | 1.76

Compound | % Inhibition [%] | Z score
COCCN(C)S(=O)(=O)[C@H]1CCCN(C(=O)c2ccns2)C1 | 1 | -0.12
COc1ccc(CCC(=O)N2CC(S(=O)(=O)CC(C)C)C2)cc1OCc1ccccc1 | -12 | 1.54
Cn1cnc2cc(C(=O)OCC3CCOC3c3ccccc3)cnc21 (configuration not stated) | -6 | 0.94
C[C@]1(c2nc(C3(c4ccccc4)CCC3)no2)CCC(=O)NC1 | -1 | 0.16
CCCN1CCCN(C(=O)c2nnn(-c3cccc4cccnc34)c2C)CC1=O | -6 | 0.87
COCCCN1C(=O)CC[C@@H]2CN(C(=O)NC3CCCCC3)CC[C@@H]21 | 0 | 0
C[C@H]1CN(CCC(=O)Nc2sc3c(c2C#N)CCCCC3)CCO1 | -16 | 2.54
CC(NC(=O)OC(C)(C)C)C1COCCC1NCc1cc(F)cc(Br)c1 (configuration not stated) | -8 | 0.78
O=C(NC1CCCCCC1C(=O)O)c1ccc(Br)o1 (configuration not stated) | -10 | 0.98
O=C(O)c1nccnc1C(=O)N1CCCCC1 | 14 | -2.24
CN(Cc1cnccn1)c1ccccn1 | -11 | 2.08
Cc1cc(C#N)cc(NS(=O)(=O)c2ccc3c(c2)C[C@H](C)O3)n1 | 1 | -0.15
CCN1CCN(C(=O)[C@@H](c2ccccc2)n2c(Cc3ccc(F)cc3)nc3cc(C)c(C)cc32)CC1 | -3 | 0.46
COC(=O)c1c(Cl)c(C2CC2)nc2c1c(C)nn2-c1ccccc1F | -45 | 5.26
c1ccc2c(c1)n[n+]1c3ccccc3[n-]n21 | -8 | 1.56
CCc1ncnc(NC2(CO)CCCC2)c1F | -16 | 2.05
O=C(NCC1(OCCO)CCCC1)C1CCOCC1 | -8 | 1.13
CN(C)c1ccnc(NC(=O)N2CCC[C@@H]2CC2CCCC2)n1 | -8 | 0.86
O=C(COc1ccccc1F)N1CC(COc2ccc(F)cc2)C1 | 2 | -0.28
O=C(CN(C[C@H]1CCCO1)C(=O)c1ccc(Cl)cc1)Nc1nc(-c2ccccc2)cn1-c1ccccc1 | -2 | 0.35
Cc1[nH]ccc1C(=O)Nc1cccc(NC(=O)N2CCCCCC2)c1 | -5 | 0.85
Cn1cc(S(=O)(=O)NC[C@H](O)c2ccc3c(c2)CCO3)cn1 | -17 | 2.63

Compound | % Inhibition [%] | Z score
CC(C)CN(CC(F)(F)F)C(=O)c1cc(-c2ccncc2)nn1C | 2 | -0.24
Cn1cncc1-c1noc(-c2cc(S(N)(=O)=O)ccc2N2CCOCC2)n1 | 1 | -0.09
CCCCN(Cc1ccccc1)c1ccc(C(=O)O)cc1NC(=O)c1ccc(Cl)cc1 | -1 | 0.16
CCC#CCN1CCC(CNC(=O)c2cccnc2C)CC1 | 3 | -0.35
Cc1c(Cl)cccc1NC(=O)Cn1c(=O)n(CCc2cccs2)c(=O)c2ccccc21 | 30 | -3.44
O=C(NC1CC1)[C@H]1O[C@H](CCN2CCN(c3ccccc3)CC2)CC[C@@H]1O | -4 | 0.68
CN1CCCC[C@@H]1CCC(=O)NCCCOC1CCCC1 | 3 | -0.45
COc1ccc(CNc2cccc3c2CCNC3=O)cn1 | -10 | 1.92
Cc1ncc(CN2C[C@H](CO)OC(C)(C)C2)s1 | -7 | 0.93
OC1CCCCC1NC1CCCc2sccc21 (configuration not stated) | 1 | -0.13
COc1ccc(OC)c(CNC(=O)C2CCN(c3cnc4nccnc4c3)CC2)c1 | 10 | -1.91
Cc1cc(C)c2oc(-c3cccc(NC(=O)c4ccc5ccccc5c4)c3)nc2c1 | -2 | 0.23
Cc1oncc1C(=O)NCc1cccnc1-c1ccncc1 | -12 | 1.41
O=C(c1cccnc1)N1CC(S(=O)(=O)Nc2ccccc2)C1 | 8 | -1.28
C=C[C@](C)(CCOC)C(=O)N1CCC2(CCCC2)C1 | -10 | 1.88
CN([C@H]1CCc2ccccc21)S(=O)(=O)c1ccc2c(c1)OCCCO2 | 3 | -0.53
CN(Cc1ccc2cc[nH]c2c1)C[C@H]1C[C@@H]1C(=O)O | -16 | 2.23
Cc1ccccc1-c1nc(OC(C)C)nn1-c1cccc(NC(=O)c2ccccc2F)c1 | -12 | 1.95
CC1CCN([C@@H](CNC(=O)c2cccs2)c2cccs2)CC1 | -8 | 0.69
CC(=O)c1ccc(-c2ccc(C(=O)NCc3ccncc3)o2)cc1 | -11 | 1.41
CCCN1C=NS(=O)(=O)c2cc(C(=O)NC3CCCCC3)ccc21 | -10 | 1.64
COc1ccc(NC(=O)[C@H]2CCCN(S(=O)(=O)Cc3ccccc3Cl)C2)c(OC)c1 | -1 | 0.13

Compound | % Inhibition [%] | Z score
Cc1cnc(-c2cccnc2)n1C[C@H]1CCN(C(=O)CC2CCCC2)C1 | -3 | 0.53
c1c[nH]c(-c2ccc(CN3CCCCC3)s2)n1 | 2 | -0.16
O=C1NCCC2(CCN(c3nnnn3CC3=CCCCC3)CC2)O1 | -12 | 2.18
CCc1ccc(C(=O)NCC2CN(C(=O)OC(C)(C)C)CC2O)cc1 (configuration not stated) | -7 | 0.95
C[C@@H](Cn1cncn1)c1ncnn1C1Cc2ccccc2C1 | 1 | -0.22
CC(C)n1nnnc1-c1ccccc1NS(=O)(=O)N1CCC[C@@H]1C | -7 | 1.34
O=C(c1cc(-c2ccccc2)on1)N1CCCN(C2CCC2)CC1 | -18 | 3.15
CC(C)C(=O)N(Cc1cc(NC(=O)C2CCC2)ccc1N(C)C)CC1CC1 | -8 | 1.16
CC(C)c1cnc(CN2C(=O)C[C@H](Cc3ccc(F)cc3)C2=O)o1 | 3 | -0.34
Cc1nc(C#N)cc(N[C@H](C(N)=O)C(C)C)n1 | -10 | 0.82
Cc1nnc(CN[C@@H](Cc2ccccc2)C2CCCC2)n1C | -15 | 2.73
CCOc1ccc([C@@H]2CC(c3ccc(C)cc3)=NN2C(=O)CN2CCOCC2)cc1 | -5 | 0.87
C[C@H](NC(=O)C1(C)COC1)c1ccn(C)n1 | -10 | 1.18
CCN=C(NCCCOCC1CCCO1)NC(C)CC (configuration not stated) | -2 | 0.16
Cn1ncnc1[C@@H](NC(=O)COc1ccc(F)cc1)C1CC1 | -18 | 1.82
Cc1ccnc(NC(=O)Nc2cn[nH]c2)c1 | 1 | -0.12
CCCC(CCC)NC(=O)c1cncn1-c1cccc(-c2cc(Cl)ccc2OC)c1 | 4 | -0.44
COCCN1CC[C@H](CN(C)Cc2ccc(OC)cc2C)C1 | 4 | -0.42
O=C(NCCc1c[nH]cn1)[C@H](c1ccccc1)n1c(=O)[nH]c2ccccc2c1=O | -1 | 0.17
CC(=O)N1CCO[C@@H](CNC(=O)c2ccc(-c3cc(N)ccn3)cc2)C1 | -4 | 0.55
